# Laboratory results published in PMC12136788.
# The list shows a part of the results.
# B1: chr9:45784209:45784210:-_ENSMUSG00000003131_ENSMUST00000172450|mus_mus|motif|central (ssRNA)
# RNA: GGGAGUUCUACAGUCCGACGAUCGGAGUCCCCCACAAACAGCACAUCUGGUUCUUUGUCUUUACAGUCCAGAACAAACCGGUUAUGCUGAGACAUCCACCUGUCAUCUCCUUGAAUAUCUUCUGCGGCAUGUGGAAUAGCUGCCAACAGAGGAUUGAGCAUCA
# B2: chr14:76904430:76904431:+_ENSMUSG00000022010_ENSMUST00000022587|mus_mus|mus_mus_mus_hu_True|18_18 (ssRNA)
# RNA: GGGAGUUCUACAGUCCGACGAUCUGCAGCCAAAAACACCCUCGUGGAAAAAAAGAGGGAACACCAGCAGCCUUGUAUAAGCUAGAUAAAAUCUUCUGGCUUUCCGCAGCCCAGGGAGUGAGAACGGACGGCAGCCCUAAUUUACAACAGAGGAUUGAGCAUCA
# B3: chr7:54823571:54823572:-_ENSG00000132432_ENST00000352861|hu_mus|hu_hu_hu_mus_False|8_88 (ssRNA)
# RNA: GGGAGUUCUACAGUCCGACGAUCUCCCAUGAUAGCAAAUCCUAUAGCUGUUGCCAUGGCAAUCUUCUGGAAUUCUUUUCUGUCGGGUUUGGUGCAUCUUUUAACCAGCCGAAUUGAGUCCUUUACAAACUGCCGACUGGGCUCCAACAGAGGAUUGAGCAUCA
# B4: 166731569_166740681_71_5pUTR_ENSMUSG00000002718_ENSMUST00000002790|mouse|control|control (ssRNA)
# RNA: GGGAGUUCUACAGUCCGACGAUCAUGACUCUGAAUCUCGUGGGGACGCCGAGACCGAGGAGGGAAUCCCAAGCGAGAGCUGCAGCCGACACUACCCCACUCCAGCCGCUGCUCCGCCUCACAUUCAAACCCUGGCAAAAUGGCCAACAGAGGAUUGAGCAUCA
# B5: chr11:102767452:102767453:-_ENSMUSG00000051378_ENSMUST00000021311|mus_mus|motif|central (ssRNA)
# RNA: GGGAGUUCUACAGUCCGACGAUCGGUGAGGAAGGCAGGCUAGGGACUCUUGGCAUUGGCAGCUGUAGACAAGAGAAGGCGGUUGGCGAAUCAGAACAAUCGUGGAUGCCAGGAGUCCCUCGUGGUCAGAACACCCAGUUAAUACAACAGAGGAUUGAGCAUCA
# B6: 93805626_93805746_2619_3pUTR_ENSMUSG00000059474_ENSMUST00000107854|mouse|control|control (ssRNA)
# RNA: GGGAGUUCUACAGUCCGACGAUCGCAAUAAAACGUCAGCGAGCACAAUUAAUGACCCCUUCCGUGAUCUACAUGGUGAUGAGCCCUCUGUGAGGGGUUCAGUUGCAUAUUUUCGCAGCAAAGGAAGCUGGAGAUGUGACUGGCCAACAGAGGAUUGAGCAUCA
# B7: chr11:55313332:55313333:+_ENSMUSG00000018583_ENSMUST00000018727|mus_hu|FALSE|FALSE (ssRNA)
# RNA: GGGAGUUCUACAGUCCGACGAUCUCUUUAAAAGUCCGUUAUUCCUAAAAUAUCAUUCCACAAAAUUGGAAGUGAAAGACUAAAGGUCAGGAAAGGGAAGAGAGGGAGAGGGAGCACACACCAUUAACACACAAAAAAAGUAAACAACAGAGGAUUGAGCAUCA
# B8: chr19:8913615:8913616:-_ENSMUSG00000071658_ENSMUST00000096259|mus_hu|mus_mus_mus_hu_False|18_88 (ssRNA)
# RNA: GGGAGUUCUACAGUCCGACGAUCAGGGUACCAAAACCUUCUGCCUGAGAUAGGUGCCCCACCCAGUAGGGAGUUGCAGCUGAAAGUAUCUGAUGCAGAAGCAGUGACUAUACGAAAGGUCACUAGAGGGGAGGGCCAGGCCAGCAACAGAGGAUUGAGCAUCA
# B9: chr6:40197388:40197389:+_ENSMUSG00000057716_ENSMUST00000061740|mus_mus|FALSE|FALSE (ssRNA)
# RNA: GGGAGUUCUACAGUCCGACGAUCGCCUUGUCAGUUUGGAUGGCACCUCAGUUUGGGUGCUAGCCUCUAAGAUAGAUAGCUAUUUUGGGAUUCAUGGCCUUGAAGAUCAAGAGGAAAGGGACGAGAAUGGAAAGAGUCAAGAGUCAACAGAGGAUUGAGCAUCA
# B10: 81681878_81681998_755_CDS_ENSMUSG00000048546_ENSMUST00000050467|mouse|control|control (ssRNA)
# RNA: GGGAGUUCUACAGUCCGACGAUCCUUCUCGCCAAUCUGGUAGGAUACCUCGAAAGGGUCAAUCCAGACACUCAGCUCUUCGGGCACGUUGGCACGCACAUCCUCCACAGCUAGGCCGCUCCGCUUGGCAGCCAGCUCCACCACCAACAGAGGAUUGAGCAUCA
# B11: chr2:48026839:48026840:+_ENSG00000116062_ENST00000540021|hu_hu|hu_hu_hu_mus_False|58_58 (ssRNA)
# RNA: GGGAGUUCUACAGUCCGACGAUCAUAGUGAGCCACUAGCGUCCUAAAUCUGGAACAGUGGCGGUCAUCCGAAAACUGACCUAUGAAAAACUUGCCCAGUGAAGUGUCCACAAAGCAAACACCAUACACACGAGUGUGACCAGACAACAGAGGAUUGAGCAUCA
# B12: 46090527_46090647_3540_3pUTR_ENSMUSG00000015882_ENSMUST00000045586|mouse|control|control (ssRNA)
# RNA: GGGAGUUCUACAGUCCGACGAUCAGUUUUUUUUGUUUGUUUGUUUUUUGUCACUGCAAAGACAAGGUUGAGCUUGAGAAGUUUGUAGCUGUCUUGCAUUCGUUUAGUCAUUAGUAUUGGACCUUGCAUGUUUUCUUAGAUUAACAACAGAGGAUUGAGCAUCA
# B13: chr4:144460044:144460045:+_ENSG00000153147_ENST00000283131|hu_mus|hu_hu_hu_mus_False|18_88 (ssRNA)
# RNA: GGGAGUUCUACAGUCCGACGAUCACGGUCCAUAGCCUGAAGAUCAACUUGGGGAUUCCAAUCUGAGUCAUAUAAAAUGACUACAUCAGCAGUUGCAAGAUUGAUGCCCAGACCACCAGCACGCGUGCUUAGCAUAAAUACAAACAACAGAGGAUUGAGCAUCA
# B14: 39667289_39668368_1577_CDS_ENSG00000130669_ENST00000435673|human|control|control (ssRNA)
# RNA: GGGAGUUCUACAGUCCGACGAUCGGGCUCUCCGUCCACCAUCUCAAUCACCAUUAUCCCCAGCGACCAGAUGUCUACCUCUGGCCCGUAGGGAAGGCGGGAGAUGAGCUCUGGGGCCAUCCAGUAGGGCGUGCCGACCAGCGACAACAGAGGAUUGAGCAUCA
# B15: chr3:183368427:183368428:+_ENSG00000114796_ENST00000454652|hu_hu|motif|central (ssRNA)
# RNA: GGGAGUUCUACAGUCCGACGAUCAACCAACAUUUCUCGGCUUUCCCUGUGGUCAUUACAAAACAUAGCUCUGAAGUAGCUGCGGCAGGCUGAGAGCACAGCUCUAUGGCAAGGAAAUUCUUUUCCUUCCACACAAAUGAUAACCAACAGAGGAUUGAGCAUCA
# B16: chrX:132779699:132779700:+_ENSMUSG00000042712_ENSMUST00000048687|mus_hu|FALSE|FALSE (ssRNA)
# RNA: GGGAGUUCUACAGUCCGACGAUCAAAUUCCCGCAAGUUUGACUCCUUCCACGGGCCUCAGGGACCACCGCCUGCGCUGCUGAAGGAAGCUGGUAUCCAGACGGGAACAAGGACCAGAUUACCAGGACUUCUGCACACGUCGACCAACAGAGGAUUGAGCAUCA
# B17: 2694593_2697051_1340_CDS_ENSG00000101596_ENST00000320876|human|control|control (ssRNA)
# RNA: GGGAGUUCUACAGUCCGACGAUCAAUAUAGUAGUGAUAAAUAUGCGCUAACUGUCGUGUCCAAAGGUGGAAAUAAUUUUUCAAGUACUGUAUGUGUUCUGGUUGUACCCCUGUGAUAACCACAGCAGUAAAGCUAUCUUUUUCCAACAGAGGAUUGAGCAUCA
# B18: 72380402_72380522_416_3pUTR_ENSMUSG00000037674_ENSMUST00000093820|mouse|control|control (ssRNA)
# RNA: GGGAGUUCUACAGUCCGACGAUCGGAGGAGGAGGGGGAGGAAGAGGAGGAAGGAAGGAAGCUGGAUAAGCUAGGCCUAUACCCCAGGGCUCGAGUGAGUCGCUUUCUCCGGCCGCCUGAGGGACAUCCCCGGGGAGACCGCGCCAACAGAGGAUUGAGCAUCA
# B19: chr5:50689391:50689392:+_ENSG00000016082_ENST00000230658|hu_mus|motif|central (ssRNA)
# RNA: GGGAGUUCUACAGUCCGACGAUCAAUAGGACUGGCUACCAUGCUGUUGGGUGUAUCUGGGAGCUGCGAGGACAUCGAUGCGGCUUCACUGCCAGUAGAAUUAGAGCCUGGUCCUCCUUCUGAAAAAUUGACCAGUUGCUGAAACAACAGAGGAUUGAGCAUCA
# B20: chr18:56819859:56819860:+_ENSG00000166562_ENST00000588875|hu_mus|hu_hu_hu_mus_True|38_88 (ssRNA)
# RNA: GGGAGUUCUACAGUCCGACGAUCAACCUUGAUUACUCUGUGAACUAUUGGAAUGUCUCUUCCUUCAACCUUAAAAACAACUAUUUCACCAGCUCUGAUUGGGUCUUCCCGGAAAUUCGUGAGGAACAGCAGAUCUCCUCUGUGCAACAGAGGAUUGAGCAUCA
# B21: chr20:32439910:32439911:+_ENSG00000101421_ENST00000217402|hu_hu|FALSE|FALSE (ssRNA)
# RNA: GGGAGUUCUACAGUCCGACGAUCAGGGACUGUUUCGGGUCCACUGAUUUCCAGCAAAUUCUUGUCUAGUUCCUCCUGUUCUAGUUCUUCUAAUUCCGCCAUGAGCUCAUCCUCGUCAAACUCUUCUCCAAACCCUACAGGUUUCAACAGAGGAUUGAGCAUCA
# B22: chr1:151374018:151374019:+_ENSG00000159377_ENST00000290541|hu_hu|motif|central (ssRNA)
# RNA: GGGAGUUCUACAGUCCGACGAUCAAAGCCACUGAUCAUGUGGGCAAUAUCCCAGUUGGUCUCUGUAGACAAUGGUCCCUCGGUUUCAACACCUUUUUCGGUGACAGUGGCGAUUUGAAACCGGUUGUAAGAACGGGCAUCUCGCAACAGAGGAUUGAGCAUCA
# Target: T1, UNK ZnF1-3 (human, UniProt Q9C0B0 31-174)
# T1 sequence: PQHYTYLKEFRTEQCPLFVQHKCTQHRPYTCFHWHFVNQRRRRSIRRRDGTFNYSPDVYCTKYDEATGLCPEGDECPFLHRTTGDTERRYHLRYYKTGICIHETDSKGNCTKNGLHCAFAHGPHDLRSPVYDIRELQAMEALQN
# Test: nsRBNS (natural sequence RNA bind-n-seq); RBNS binding buffer (assumed for nsRBNS): 25 mM Tris pH 7.5, 150 mM KCl, 3 mM MgCl2, 0.01% Triton X-100, 500 ug/ml BSA, 20 U/ml SUPERase-In, 4 C; UNK is unkempt and MSI1 is Musashi-1; names of the RNAs are library labels; protein concentration not given here; high values mean tight binding
row,Binder,binding signal
1,B1,0.52 enrichment R
2,B2,1.77 enrichment R
3,B3,0.637 enrichment R
4,B4,1.61 enrichment R
5,B5,1.07 enrichment R
6,B6,1.43 enrichment R
7,B7,3.03 enrichment R
8,B8,1.21 enrichment R
9,B9,1.53 enrichment R
10,B10,0.957 enrichment R
11,B11,1.23 enrichment R
12,B12,0.36 enrichment R
13,B13,1.27 enrichment R
14,B14,0.701 enrichment R
15,B15,1.23 enrichment R
16,B16,1.59 enrichment R
17,B17,1.46 enrichment R
18,B18,1.5 enrichment R
19,B19,1.52 enrichment R
20,B20,0.84 enrichment R
21,B21,0.353 enrichment R
22,B22,0.597 enrichment R
